According to publication PMC4336329 (PLoS ONE, 2015):
About 14,000 (4.5%) of roughly 310,000 compounds showed an effect of 50% or more. Effects have a minus sign here. Some of the results follow.

What follows are compounds tested against human ether-à-go-go-related gene (hERG) potassium channel (human, UniProt Q12809) (assay: primary screen, population patch clamp on CHO cells stably expressing hERG).
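Note: peak tail current of the secondary pulse compared with the same well before compound.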

human ether-à-go-go-related gene (hERG) potassium channel, sequence (Q12809 whole entry, looked up): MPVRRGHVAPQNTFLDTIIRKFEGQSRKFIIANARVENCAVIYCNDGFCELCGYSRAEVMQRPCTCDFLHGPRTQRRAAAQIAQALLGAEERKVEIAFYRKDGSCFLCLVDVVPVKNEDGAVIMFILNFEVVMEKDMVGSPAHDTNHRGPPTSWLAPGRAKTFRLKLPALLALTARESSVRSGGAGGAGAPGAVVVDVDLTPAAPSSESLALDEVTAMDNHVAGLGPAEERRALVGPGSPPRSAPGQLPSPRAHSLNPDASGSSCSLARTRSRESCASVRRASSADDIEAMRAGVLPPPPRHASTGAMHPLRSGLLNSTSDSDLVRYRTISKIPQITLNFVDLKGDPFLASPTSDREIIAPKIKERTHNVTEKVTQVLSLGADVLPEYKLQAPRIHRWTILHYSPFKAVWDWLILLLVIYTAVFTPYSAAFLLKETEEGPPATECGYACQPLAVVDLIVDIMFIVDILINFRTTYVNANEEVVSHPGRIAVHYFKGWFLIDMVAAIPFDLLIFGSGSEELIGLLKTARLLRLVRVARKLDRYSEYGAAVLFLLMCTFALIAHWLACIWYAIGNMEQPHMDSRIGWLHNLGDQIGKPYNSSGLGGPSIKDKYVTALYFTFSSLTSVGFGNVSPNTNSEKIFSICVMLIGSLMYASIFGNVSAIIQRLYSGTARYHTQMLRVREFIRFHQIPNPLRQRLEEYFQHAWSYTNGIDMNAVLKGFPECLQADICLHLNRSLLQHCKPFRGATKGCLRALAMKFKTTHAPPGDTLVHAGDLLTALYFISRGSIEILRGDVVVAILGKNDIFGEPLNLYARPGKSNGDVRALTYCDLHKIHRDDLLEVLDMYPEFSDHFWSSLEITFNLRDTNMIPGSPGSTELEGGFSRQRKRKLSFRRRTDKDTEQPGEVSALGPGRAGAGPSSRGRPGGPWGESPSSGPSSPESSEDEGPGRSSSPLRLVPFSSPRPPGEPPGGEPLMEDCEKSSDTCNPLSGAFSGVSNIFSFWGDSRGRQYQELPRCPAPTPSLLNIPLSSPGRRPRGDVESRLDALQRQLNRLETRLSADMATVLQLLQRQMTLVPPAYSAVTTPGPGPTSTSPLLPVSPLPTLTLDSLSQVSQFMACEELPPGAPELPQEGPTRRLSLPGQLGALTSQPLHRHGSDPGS

Row | Compound | hERG current change (%, negative = inhibition) at 10uM [%]
1 | CCP(=O)(c1ccccc1)C(C)(C)O (stereo not drawn) | 9.43
2 | CCN(CC)CCCN1C(=O)C(O)=C(C(=O)c2cc3ccccc3o2)C1c1ccccn1 (stereo not drawn) | 10.1
3 | Cc1ccnc(NC(=O)CC(c2ccccc2)c2ccccc2)n1 | 30.5
4 | Cc1ccc(NS(=O)(=O)c2ccc(NC(=O)C3CCCO3)cc2)cc1 (stereo not drawn) | -1.6
5 | Cc1cc(C)cc(CC2CC(=O)N(c3nc(C)cc(C)n3)C2=O)c1 (stereo not drawn) | -4.62
6 | O=C(CCNS(=O)(=O)c1ccc(Cl)cc1)N1CCN(Cc2ccccc2)CC1 | -47.6
7 | CCn1ncc(Br)c1C(=O)Nc1nccs1 | -10.8
8 | COc1ccc(/C=N/n2c(C3CCCCC3)n[nH]c2=S)c(OC)c1 | 23.6
9 | FC(F)(F)c1ccc2c(c1)NCC1CCCN21 (stereo not drawn) | 16.6
10 | CCCOC(=O)Nc1cc(OC)ccc1[N+](=O)[O-] | 6.14
11 | COc1cccc(C(=O)OCC(=O)c2[nH]c(C)c(C(C)=O)c2C)c1 | 21.2
12 | CCOC(=O)N1CCN(C(=O)CCCN2C(=O)CSc3nc(C)cc(C)c32)CC1 | 12.1
13 | Cc1csc2ncnc(NCCc3ccccn3)c12 | -22.4
14 | COc1cccc(CNS(=O)(=O)c2cc3c(cc2Cl)NC(=O)CO3)c1 | -18.8
15 | Clc1ccc(-c2nnc(SCc3nc(-c4ccccc4)no3)o2)cc1 | 13.6
16 | O=C(COC(=O)CCCNC(=O)c1ccc(Cl)cc1)Nc1cc(Cl)ccc1Cl | 23.5
17 | CCOC(=O)c1sc(NC(=O)CSc2nnc(-c3ccco3)o2)c(C(=O)OCC)c1C | 7.76
18 | CCCCn1c(N)c(N(CCOC)C(=O)c2cccc(S(=O)(=O)N(C)c3ccc(C)cc3)c2)c(=O)[nH]c1=O | 9.05
19 | CNC(=O)c1c(NC(=O)c2ccc(S(=O)(=O)N3CCCCC3C)cc2)sc2c1CCN(C)C2 (stereo not drawn) | -3.92
20 | COC(=O)c1[nH]c2cccc(OC)c2c1NC(=O)CN1CCOCC1 | 2.83
21 | CCOc1ccc2ccccc2c1CNCCN1CCOCC1.Cl | -27.7
22 | CC(OC(=O)c1ccc(Cl)c(S(N)(=O)=O)c1)C(=O)NCC1CCCCC1 (stereo not drawn) | -3.93

Row | Compound | hERG current change (%, negative = inhibition) at 10uM [%]
23 | O=C(CN1C(=O)c2cccnc2Oc2ccc(Cl)cc21)NC1CCCC1 | 0.804
24 | O=C(CSCc1c(Cl)cccc1Cl)Nc1ccc2c(c1)OCO2 | 6.72
25 | CS(=O)(=O)C1=NSC2=NC(=O)/C(=C\c3ccc(OC(=O)c4ccco4)c(Br)c3)C(=N)N21 | 7.59
26 | CC(=O)N1CCOc2ccc(S(=O)(=O)N3C(C)CCCC3C)cc21 (stereo not drawn) | 6.53
27 | Cc1cc(-c2csc(NC(=O)c3ccc(C#N)cc3)n2)c(C)n1Cc1ccccc1 | 4.16
28 | CCOC(=O)C(=O)N(CC)C1CCS(=O)(=O)C1 (stereo not drawn) | 1.75
29 | O=C(COc1ccccc1)Nc1ncc2c(n1)CCCC2=O | -7.92
30 | Cl.O=C(COc1ccc(Br)cc1CNCCc1ccccc1)NCc1ccccc1 | -61.1
31 | CCCCN(CC)CCCNC(=O)CC1Oc2ccccc2NC1=O (stereo not drawn) | -22.6
32 | O=C(CC1C(=O)NCCN1C(=S)Nc1ccccc1)Nc1ccc(F)cc1 (stereo not drawn) | -3.33
33 | CN1CCN(C(=O)NC2CCCN2S(=O)(=O)c2ccc(Cl)cc2)CC1 (stereo not drawn) | 0.602
34 | CCSc1ccc(NC(=O)c2cccnc2)cc1 | 0.972
35 | CCN(CC(=O)Nc1c(F)cccc1F)C(=O)CNC(=O)c1cccs1 | 10.1
36 | Cc1c2cnn(-c3ccccc3)c(=O)c2c(C)n1CCCC(=O)NCCN1CCN(C)CC1 | 1.27
37 | CCCS(=O)(=O)c1csc(C(=O)OC)c1N | 10.1
38 | CCCNC(=O)N1c2ccccc2Sc2ccccc21 | 10.5
39 | CN1c2ccc([N+](=O)[O-])cc2CC2(C(=O)NC(=O)N(c3ccccc3)C2=O)C1c1ccccc1 (stereo not drawn) | 22.5
40 | CN(Cc1cccs1)c1ncnc2sccc12 | -28.8
41 | CC(=O)c1c(O)c(C)c(-c2ccccc2)n(-c2ccccc2)c1=O | -3.96
42 | CCOC(=O)C1=C(N)Oc2c(oc(CO)cc2=O)C1c1c(F)cccc1Cl (stereo not drawn) | 0.47
43 | Cc1nc(C)c(C(=O)OCC(=O)NCCc2ccc(S(N)(=O)=O)cc2)s1 | -0.28
44 | O=C(N=C1SC2CS(=O)(=O)CC2N1c1ccc(Br)cc1F)C1CC1 (stereo not drawn) | 16.2

Row | Compound | hERG current change (%, negative = inhibition) at 10uM [%]
45 | CN(CC(=O)Nc1cccc(F)c1)C(=O)c1ccc(N2CCCC2)c([N+](=O)[O-])c1 | -46.7
46 | O=C(O)c1ccc(CSc2nnc(-c3ccncc3)n2-c2ccc(Br)cc2)cc1 | -0.673
47 | CCCCn1c(N)c(N(CC(C)C)C(=O)c2cccc(S(=O)(=O)N3CCCCC3)c2)c(=O)[nH]c1=O | 9.31
48 | CC(C)Nc1nc(NC(C)C)nc(Nn2cnnc2)n1 | 19.2
49 | O=C(N=C1SC2CS(=O)(=O)CC2N1c1ccc(Br)cc1Cl)C1CC1 (stereo not drawn) | -29.6
50 | O=S(=O)(c1ccc(Br)cc1)N1CCOC12CCCCC2 | 12.5
51 | CC(C)(C)C(=O)NC1CCN(S(=O)(=O)c2ccccc2F)CC1 | 5.17
52 | CCCCOC(=O)C1=C(C)NC(=O)NC1c1ccc([N+](=O)[O-])s1 (stereo not drawn) | 1.66
53 | COc1cc2c(=O)n(CCC(=O)NCC3CCCO3)c(=O)n(CC(=O)Nc3ccc(C)cc3)c2cc1OC (stereo not drawn) | 0.242
54 | O=C(C1CCCC1)N(c1ccccc1)C1C=CS(=O)(=O)C1 (stereo not drawn) | -2.05
55 | COc1ccc(-n2nc3c(c2NC(=O)c2ccc(N4C(=O)CCC4=O)cc2)CSC3)cc1 | 22
56 | O=C(CSc1nnnn1-c1ccccc1)N1CCN(C(=O)c2ccco2)CC1 | -49.4
57 | Cc1nc(NCCC(C)C)c2nnn(Cc3ccccc3)c2n1 | 12.6
58 | CCN1CCN(CCCNC(=O)c2csc3c2CCCCC3)CC1 | -7.21
59 | Cc1onc(-c2c(F)cccc2Cl)c1C(O)c1ccc(F)cc1 (stereo not drawn) | 9.8
60 | COC(=O)C1=C(c2ccc(S(C)(=O)=O)cc2)C[C@@H]2CC[C@H]1N2C(=O)NCc1ccco1 | 2.75
61 | C/C(=N\O)C(=O)Nc1ccccc1 | 7.85
62 | COc1ccc(C(=O)COC(=O)c2c(-c3ccccc3)noc2C)c(OC)c1 | 26.2
63 | CCOC(=O)CNC(=S)N1CCn2c(nc3ccccc32)C1 | -19.4
64 | CCCN(Cc1ccccc1)C(=S)Nc1cccc(C)c1C | 57.5
65 | COc1cc(/C=C(\C#N)c2nc3ccc(C)cc3[nH]2)c([N+](=O)[O-])cc1OC | -1.7
66 | CCn1c(SCC(=O)OC)nnc1-c1c[nH]c2ccccc12 | 10.6

Row | Compound | hERG current change (%, negative = inhibition) at 10uM [%]
67 | O=C(Nc1ccc2c(c1)OCCO2)c1cc(-c2ccccn2)nc2ccc(Br)cc12 | 6.13
68 | Cn1c(SCC(=O)NCc2ccc3c(c2)OCO3)ncc(C(=O)Nc2ccc(F)cc2)c1=O | -15.3
69 | Cc1ccc(OP(=O)(NC(C)c2ccccc2)Oc2ccc(C)cc2)cc1 (stereo not drawn) | 17.6
70 | O=C(c1sc2cccc(Cl)c2c1Cl)N1CCN(CCc2ccccn2)CC1 | -28.9
71 | O=C(Nc1ccccc1)N1CCCN(c2ccc(C(F)(F)F)cc2[N+](=O)[O-])CC1 | -39.9
72 | O=S1(=O)c2ccccc2N=NN1Cc1cc(Cl)cc(Cl)c1 | 1.27
73 | COc1ccc(OC)c(NC(=S)N2CCN(C/C=C/c3ccccc3)CC2)c1 | -33
74 | O=C(c1ccccc1F)N1C[C@H]2C[C@@H](C1)c1cccc(=O)n1C2 | 15.2
75 | CCCS(=O)(=O)N1CCCC(C(=O)NCCN2CCC(Cc3ccccc3)CC2)C1 (stereo not drawn) | -58.2
76 | O=C(NCCCNC(=O)c1ccco1)c1ccc(Cl)c(Cl)c1 | -26.4
77 | COC(=O)C(C)NC(=O)COc1ccc2ccccc2c1 (stereo not drawn) | -1.31
78 | Cc1n[nH]c(=O)c2c(NC(=O)COC(=O)COc3cccc(Br)c3)oc(C)c12 | -22.9
79 | COc1cc(OC)cc(C(=O)NCC(=O)NC(C)c2ccccc2)c1 (stereo not drawn) | 20.5
80 | CCN(Cc1ccccc1)C(=S)Nc1cc(C(=O)OC)ccc1C(=O)OC | 17
81 | COc1cc(C(=O)NCCOc2cc(C)cc(C)c2)c(Br)c(OC)c1OC | -18.4
82 | Cn1cnc(S(=O)(=O)Nc2ccc(C(F)(F)F)cc2)c1 | -5.41
83 | COc1cc(C)c(C(=O)CSc2nnc(CNC(=O)c3ccco3)n2C)cc1C | 3.76
84 | CCCOc1ccc(N2CC(C(=O)Nc3ccccc3C(=O)NCc3ccco3)CC2=O)cc1 (stereo not drawn) | -71.5
85 | CS(=O)(=O)O.Cc1cccc2c1Sc1ccc(Cl)cc1CC2N1CCNCC1.O (stereo not drawn) | 5.75
86 | COc1cc(C)c2occ(/C(C)=N\O)c2c1 | -8.95
87 | COc1ccc(CC2(CO)CCN(C(=O)NCc3ccccc3)CC2)cc1 | -2.8
